# Measured values as given in PubChem BioAssay AID1476 (National Center for Advancing Translational Sciences (NCATS), 2009).
# In all, about 200,000 compounds went through this assay and about 4,500 (2.2%) were called active. Inconclusive results, whose numbers are uncertain, are shown with a selection of clear calls. Calls come from the whole dose curve; as a rule, active = well fitted inhibition curve with a large enough effect; inconclusive = small, poorly fitted or top-dose-only effect, or effect the other way; inactive = flat fitted curve, though single readings scatter. Potencies beside an inconclusive call are fits to weak or partial responses and may not hold up.
# Molecular target: Cruzipain (Trypanosoma cruzi) (UniProt P25779)
# Assay: qHTS Assay for Promiscuous and Specific Inhibitors of Cruzain (without detergent); note: nearly all actives have a fitted effect of over 40% in size;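 for max response, negative = inhibition: plate controls were enzyme without inhibitor for no effect and buffer without enzyme for full effect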
# Details: purified cruzain, Z-FR-AMC fluorescence, no detergent
# Procedure, shortened: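 Detergent-free condition (0.00005% Triton X-100) in acetate buffer pH 5.5 with DTT. 1.5 nM enzyme and compound were pre-mixed 15 min, then 2 uM Z-FR-AMC substrate added; reaction progress from fluorescence change between first and third reads (60 s).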
# Potency is the fitted concentration of half-maximal effect; tags give direction and shape of the fitted curve.
# Sequence of UniProt P25779 (P25779 whole entry, looked up): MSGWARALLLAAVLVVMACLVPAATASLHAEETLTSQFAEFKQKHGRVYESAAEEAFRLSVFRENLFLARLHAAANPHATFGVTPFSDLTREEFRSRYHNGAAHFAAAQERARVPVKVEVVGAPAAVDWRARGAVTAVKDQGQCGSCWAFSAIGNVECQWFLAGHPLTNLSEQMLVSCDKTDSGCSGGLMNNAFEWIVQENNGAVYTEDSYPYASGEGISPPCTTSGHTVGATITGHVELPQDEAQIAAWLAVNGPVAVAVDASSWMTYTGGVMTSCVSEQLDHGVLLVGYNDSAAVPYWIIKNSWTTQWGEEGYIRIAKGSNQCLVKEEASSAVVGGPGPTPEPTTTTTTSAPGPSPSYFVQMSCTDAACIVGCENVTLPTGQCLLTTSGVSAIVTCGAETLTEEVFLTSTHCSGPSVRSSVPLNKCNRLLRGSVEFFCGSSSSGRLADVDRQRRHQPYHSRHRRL
SMILES,Potency,"max response, negative = inhibition"
Cc1c(C(=O)N2CCOCC2)oc2ccc(S(=O)(=O)N3CCCCCC3)cc12,"inconclusive: 39.8 µM [activator, single point]",–
CCc1cccc(NC2c3ccccc3C(=O)N2c2cccnc2)c1 (stereo not drawn),"inconclusive: 5.01 µM [inhibitor, full curve]",–
O=C(Nc1ccc2c(c1)OCO2)c1ccc(N2C(=O)c3ccccc3C2=O)cc1,active: 6.31 µM,–
CCC(C)C(=O)Nc1nc(C)c(-c2csc(Nc3cc(Cl)ccc3OC)n2)s1 (stereo not drawn),–,inactive: -15.7%
CCOCCCn1c(=N)c(C(=O)NCc2ccccc2)cc2c(=O)n3ccccc3nc21,–,inactive: -2.31%
CCOC(=O)N1CCN(C(=O)CSCC(=O)Nc2nc(-c3ccc(Cl)s3)cs2)CC1,"inconclusive: 39.8 µM [activator, single point]",–
Cc1cc2cc(CNC(=O)NC3CCCCC3)ccc2[nH]1,"inconclusive: 31.6 µM [inhibitor, single point]",–
O=C1N/C(=N\N=C\c2cccs2)SC1Cc1ccc(Cl)cc1Cl (stereo not drawn),"inconclusive: 31.6 µM [inhibitor, single point]",–
CCc1ccc(S(=O)(=O)c2nnn3c2nc(N2CCC(C(N)=O)CC2)c2cc(Cl)ccc23)cc1,"inconclusive: 39.8 µM [activator, single point]",–
CCCNC(=O)CN1C(=O)c2c(c3ccccc3n2C)C1c1ccc(OC)cc1 (stereo not drawn),"inconclusive: 39.8 µM [activator, single point]",–
COc1ccc(CNC(=O)c2cc3oc4ccccc4c3n2C)cc1OC,"inconclusive: 31.6 µM [activator, single point]",–
CCOC(=O)Cc1c(C)nc2c(-c3ccccc3)c(C)nn2c1C,"inconclusive: 39.8 µM [activator, single point]",–
CCOC(=O)c1c(NC(=O)COc2cccc3c2CCN(C)C3=O)sc2c1CCC2,"inconclusive: 39.8 µM [activator, single point]",–
COc1ccc(-n2c(O)c(/C=N/NS(=O)(=O)c3ccc(C)cc3)c3ccccc3c2=O)cc1OC,"inconclusive: 39.8 µM [activator, single point]",–
O=S1(=O)N=C(Nc2ccc(N3CCOCC3)cc2)c2ccccc21,–,inactive: -18.9%
CCc1cccc(C)c1NC(=O)CN1C(=O)c2ccccc2Sc2ncccc21,"inconclusive: 31.6 µM [activator, single point]",–
Cc1ccccc1NC(=O)NCCc1nc2ccccc2[nH]1,"inconclusive: 15.8 µM [inhibitor, single point]",–
O=C(/C=C/c1cccc(Cl)c1)Nn1c(-c2cccs2)nc2ccccc2c1=O,active: 12.6 µM,–
O=C(Nc1ccc2c(c1)CCC2)c1cc(S(=O)(=O)N2CCN(c3ccccc3)CC2)ccc1Cl,active: 3.98 µM,–
COC(=O)c1sc2cccc(F)c2c1S(=O)(=O)Nc1cc(C)c(Cl)cc1OC,–,inactive: -7.99%
CC(C)Cc1nnc(NC(=O)Cc2ccc([N+](=O)[O-])cc2)s1,"inconclusive: 39.8 µM [inhibitor, single point]",–

SMILES,Potency,"max response, negative = inhibition"
CC(=O)Nc1ccc2nc(SCC(=O)Nc3ccc(N4CCOCC4)c(Cl)c3)sc2c1,"inconclusive: 39.8 µM [activator, single point]",–
COc1ccc(C2=Nc3nc(-c4ccccc4)cn3C(c3ccc(OC)cc3)C2)cc1 (stereo not drawn),"inconclusive: 39.8 µM [inhibitor, single point]",–
COc1ccc(CCNC(=O)CSCc2nc(-c3cccc(C)c3)oc2C)cc1OC,"inconclusive: 39.8 µM [activator, single point]",–
NC(=O)c1c(N)sc2c1CCCCC2,active: 25.1 µM,–
N#CC1=C(N)Oc2c(ccc3ccccc23)C1c1cccs1 (stereo not drawn),"inconclusive: 25.1 µM [inhibitor, single point]",–
CCN(C(=O)Cn1c(=O)n2nc(CCn3nc(C)cc3C)nc2c2ccccc21)c1cccc(C)c1,"inconclusive: 39.8 µM [activator, single point]",–
Cc1ccc(-c2nnc(CSc3nc4cc5c(cc4cc3C)OCO5)o2)cc1,–,inactive: -27.9%
CCOC(=O)c1cnc(SC)nc1Sc1cc(Cl)ccc1Cl,"inconclusive: 39.8 µM [inhibitor, single point]",–
CCn1c2ccccc2c2nnc(SCC(=O)c3ccccc3)nc21,"inconclusive: 25.1 µM [inhibitor, partial curve]",–
COc1ccc(/C=C2\N=C(SC)SC2=O)cc1OC,–,inactive: -6.19%
N#C/C(=C\C1=C(N2CCOCC2)C(=C/c2cccc([N+](=O)[O-])c2)/CC1)C(=O)Nc1ccccc1F,active: 12.6 µM,–
Cn1c(C(=O)OC(C(=O)NC2CCCCC2)c2cccnc2)cc2sccc21 (stereo not drawn),"inconclusive: 0.158 µM [inhibitor, single point]",–
CCOc1ccc(OCC)c(Nc2nc3ccc(C(=O)c4ccccc4)cc3n3cnnc23)c1,–,inactive: 4.11%
COc1ccc(/C=C(/NC(=O)c2ccc(OC)cc2)C(=O)NCCc2c[nH]c3ccccc23)cc1,"inconclusive: 25.1 µM [inhibitor, single point]",–
Cc1ccc(NCC(=O)N/N=C\C(Br)=C\c2ccccc2)cc1,active: 12.6 µM,–
Cc1onc(-c2ccccc2Cl)c1C(=O)Oc1cc(N)n(S(=O)(=O)c2ccc(F)cc2)n1,"inconclusive: 31.6 µM [inhibitor, single point]",–
CC(/C=C1\SC(=S)N(NC(=O)c2ccc(C)cc2)C1=O)=C\c1ccccc1,active: 31.6 µM,–
CCOC(=O)C1CCN(C(=O)c2sc3nc(C)nc(N4CCC(C)CC4)c3c2C)CC1,"inconclusive: 31.6 µM [activator, single point]",–
CCOC(=O)N1CCC(NC(=O)c2ccc3c(c2)N(Cc2ccc(Cl)cc2)C(=O)c2ccccc2S3(=O)=O)CC1,–,inactive: 26.4%
COC(=O)CNC(=O)CN1C(=O)N(c2ccc(Cl)cc2)C(N(O)C(=O)Nc2ccc(Cl)cc2)C1(C)C (stereo not drawn),"inconclusive: 39.8 µM [activator, single point]",–
CCC1CCc2c(sc(NC(=O)C3c4ccccc4Oc4ccccc43)c2C(=O)OC)C1 (stereo not drawn),active: 3.98 µM,–

SMILES,Potency,"max response, negative = inhibition"
CON/C=C(\C=Nc1ccc(Cl)cc1Cl)c1ncc(C(F)(F)F)cc1Cl,"inconclusive: 12.6 µM [inhibitor, partial curve]",–
CNC(=O)c1ccc2nc(Cc3ccccc3)oc2c1,–,inactive: 3.96%
COc1ccc(OC)c(CCNC(=O)c2nn(C)c3c2CSc2ccccc2-3)c1,–,inactive: 12.2%
CCOC(=O)c1c(S(=O)(=O)N2CCN(c3cccc(C(F)(F)F)c3)CC2)c(C)n(C)c1C,"inconclusive: 3.16 µM [inhibitor, partial curve]",–
CC(C)c1ccc(C2=NC(c3ccncc3)=Nc3ccc(F)cc3N2)cc1,–,inactive: 4.63%
Cc1ccc(NC(=O)c2ccc(N(Cc3ccccc3)S(C)(=O)=O)cc2)cc1,–,inactive: 16.4%
O=C1/C(=C\c2cccs2)N=C(c2cccs2)N1Nc1ccccc1,"inconclusive: 3.16 µM [inhibitor, single point]",–
C[C@@H]1CC[C@@]2(OC1)O[C@H]1[C@@H](O)[C@H]3[C@@H]4CC[C@H]5C[C@@H](O[C@@H]6O[C@H](CO)[C@H](O[C@@H]7O[C@H](CO)[C@@H](O)[C@H](O[C@@H]8OC[C@@H](O)[C@H](O)[C@H]8O)[C@H]7O[C@@H]7O[C@H](CO)[C@@H](O)[C@H](O[C@@H]8O[C@H](CO)[C@@H](O)[C@H](O)[C@H]8O)[C@H]7O)[C@H](O)[C@H]6O)[C@H](O)C[C@]5(C)[C@H]4CC[C@]3(C)[C@H]1[C@@H]2C,"inconclusive: 7.94 µM [activator, full curve]",–
CCCC(=O)Nc1nc2ccc3nc(C)sc3c2s1,"inconclusive: 39.8 µM [activator, single point]",–
CCOC(=O)c1ccc(-c2ccc(/C=C(\C#N)C(=O)NCc3cccs3)o2)cc1,–,inactive: -1.27%
CCCCC(=O)Oc1ccccc1C1SCc2cc(C)c(C)cc2CS1,"inconclusive: 39.8 µM [inhibitor, single point]",–
CN(C)c1ccc(C(=O)Nc2ccc(-c3nc4ccccc4o3)cc2)cc1,–,inactive: 7.03%
Cc1ccc(-c2cc(NC(=O)C(C)Oc3ccccc3F)on2)cc1 (stereo not drawn),–,inactive: -10.4%
Cc1noc2ncnc(NCc3ccc(Cl)cc3)c12,–,inactive: -7.87%
Cn1c(C(=O)N2CCC(C(=O)N3CCN(c4ccccc4)CC3)CC2)cc2sccc21,"inconclusive: 25.1 µM [activator, partial curve]",–
COc1ccc(OC)c(CNC(=O)C2CCN(S(=O)(=O)c3ccc4[nH]c(=O)oc4c3)CC2)c1,–,inactive: -5.7%
Cc1ccc(NCc2nnc(SCC(=O)Nc3ncc(C)s3)n2CC2CCCO2)c(C)c1 (stereo not drawn),"inconclusive: 39.8 µM [activator, single point]",–
C[C@]12C=CC(=O)C=C1CCC1C2=CC[C@]2(C)[C@@H](C(=O)CN3CCN(c4cc(N5CCCC5)nc(N5CCCC5)n4)CC3)CC[C@@H]12 (stereo partly drawn),"inconclusive: 39.8 µM [inhibitor, single point]",–
COc1ccc(Nc2c3c(nc4ccc(NC(=O)c5cc(Cl)ccc5OC)cc24)CCCC3)cc1OC,"inconclusive: 20 µM [activator, single point]",–
Cc1c(NC(=O)C(Sc2ccccc2)c2ccccc2)cccc1[N+](=O)[O-] (stereo not drawn),"inconclusive: 31.6 µM [inhibitor, single point]",–
O=C(Nc1ccc2c(c1)OCCO2)c1cc2sccc2n1Cc1ccc(F)cc1,"inconclusive: 31.6 µM [inhibitor, single point]",–
